The values below come from ChEMBL document CHEMBL4888484, “Replenishing the malaria drug discovery pipeline: Screening and hit evaluation of the MMV Hit Generation Library 1 (HGL1) against asexual blood stage Plasmodium falciparum ,using a nano luciferase reporter read-out” (2022).

What is called % Inhibition is the relative decrease from the control value, in per cent.

The whole screen tested about 150,000 compounds, of which about 540 (0.36%) showed an effect of 50% or more. Some of the results follow.

This assay relates to Plasmodium falciparum. The assay can be described thus: Primary screen in NF54 nanoGlo assay, in single point, at 2uM, 72h; a lower Z score goes with more inhibition. The assay is classed as functional, Erythrocyte. The settings on record: timepoint 72 hour.
Take `O=C(NCCCF)c1ccc(O)cc1O`: the “% Inhibition” value is given as -5% and the Z score is reported as 0.55.
As for `c1ccc2c(c1)ncn2CCN1CCC2(CCCC2)C1`, the “% Inhibition” value amounted to 15% and the Z score is -2.29.
The corresponding values for `CC(C)CC(=O)N1CC[C@@H]2CN(Cc3ccccc3)[C@@H]2C1` are -8% and 0.93.
The corresponding values for `COc1ccc(C)cc1NC(=O)CN(C)S(=O)(=O)c1ccc2c(c1)C[C@H](C)N2C(=O)C1CCC1` are 0% and 0.04.
Regarding `O=C(NC1Cc2ccccc2C1)c1cc(C2CC2)n[nH]1`, the “% Inhibition” value is -22% and the Z score amounted to 1.96.
As to `C[C@@H](C(=O)NCc1ccco1)n1cncn1`, the “% Inhibition” value is -12% and the Z score is given as 2.4.
The corresponding values for `Cc1cc(CN2Cc3cnn(CCO)c3C2)c(C)c(CN2CCC[C@H](C)C2)c1` are -1% and 0.2.
The like results for `CC1CCCN(S(=O)(=O)N2CCCC(C3OCCO3)C2)C1` (centres undefined) were, in that order, -13% and 1.75.
The like results for `O=C(CCc1ccccc1F)N1CCC2(CC1)C[C@H](O)CNC2=O` were, in that order, -13% and 1.29.
As to `CCCC[C@H](CCC)NC(=O)N1CCOCC1`, the “% Inhibition” value is given as 0% and the Z score came to 0.07.
The corresponding values for `Cc1ccsc1CN1CCC[C@H](N(CCN2CCCCC2)S(C)(=O)=O)C1` are 9% and -1.23.
The like results for `O=C(CC1CC2CCC1C2)N1CCCC(n2ccnn2)CC1` (centres undefined) were, in that order, 1% and -0.16.
For the compound `C[C@]1(O)CCN(C(=O)c2cc(C#N)c[nH]2)C[C@H]1O`, the “% Inhibition” value is recorded as -10% and the Z score is on record as 1.91.
The corresponding values for `NC(=O)NCC(=O)N1CCc2[nH]nc(C(c3ccccc3)c3ccccc3)c2C1` are -9% and 1.29.
Regarding `CC(C)c1nnc(C(=O)NCCN2C(=O)CNC2=O)s1`, the “% Inhibition” value is given as -2% and the Z score is reported as 0.24.
The like results for `Cc1noc(C)c1CN(C)Cc1noc(-c2ccco2)n1` were, in that order, 0% and 0.04.
The corresponding values for `COc1ncc(-c2c(C#N)c(N)nc3c2CCC[C@@H]3C)cn1` are 3% and -0.48.
As to `Cc1ccc(O)cc1C(=O)NC1CCN(c2n[nH]c(O)n2)CC1`, the “% Inhibition” value was -11% and the Z score was found to be 1.73.
The like results for `CC[C@@]1(C)Cc2ccccc2-c2[nH]c(=O)n(-c3cccc(C)c3)c(=O)c21` were, in that order, 0% and 0.01.
The like results for `O=C(Cc1ccc(Br)cc1)Nc1cc(OCc2ccc3c(c2)OCO3)ncn1` were, in that order, 8% and -1.57.
Take `CC(C)n1cnc(C(=O)N[C@@]2(C)CCS(=O)(=O)C2)c1`: the “% Inhibition” value is listed as -4% and the Z score worked out at 0.47.
The like results for `CCOC[C@H]1CCN(C(=O)Nc2ccnc(OC)n2)C1` were, in that order, -5% and 0.65.
The like results for `COCc1ncc(-c2noc([C@@H]3CCc4cc(C)ccc4O3)n2)c(N)n1` were, in that order, -10% and 0.85.
The like results for `Cc1ccc(OCc2noc(C3CC3)n2)nc1` were, in that order, -14% and 2.29.
Consider `Cc1ccc(-c2nc(C#N)c(S(=O)(=O)N3CCN(c4ccccc4)CC3)o2)cc1`, for which the “% Inhibition” value is on record as -11% and the Z score worked out at 1.51.
With `CC(C)(C)n1cc(C(=O)N2CCN3CCOc4cccc2c43)cn1`, the “% Inhibition” value is listed as -17% and the Z score was 2.48.
The corresponding values for `COc1ccc([C@H](C)NCc2ccc(N3CCOCC3)cc2)c(OC)c1` are 0% and -0.05.
The like results for `CCC(=O)N1CCN(S(=O)(=O)c2ccc(C)cc2)[C@H]1C` were, in that order, 37% and -1.06.
The corresponding values for `COc1nc(-c2cccc(C(=O)N(C)[C@H]3COC[C@@H]3O)c2)nn1C` are -2% and 0.33.
Turning to `N#Cc1ccc(F)c(CS(=O)(=O)N2CCC[C@H](Cn3cncn3)C2)c1`, the “% Inhibition” value stood at 3% and the Z score is given as -0.47.
The corresponding values for `O=C(c1ccc2n[nH]c(=O)n2c1)N1CC(=O)N(C2CC2)C1` are 0% and 0.01.
The corresponding values for `Cc1cccc(CC(=O)N(CC2CCN(C3Cc4ccccc4C3)CC2)C[C@H]2CCCO2)c1` are -2% and 0.31.
The corresponding values for `Cn1c(C(=O)[C@H](C#N)C(=O)Nc2ccccc2F)cc2ccccc21` are -4% and 0.68.
In the case of `CCC[C@@H](CN(C)C1CC[S+]([O-])CC1)c1ccccc1` (some centres undefined), the “% Inhibition” value is -4% and the Z score is recorded as 0.56.
The corresponding values for `Cc1cc(C)c(NS(=O)(=O)c2ccc(CC(=O)N3CCCCC3)s2)c(C)c1` are -1% and 0.24.
The corresponding values for `COc1ccc(CCNC(=O)c2csc(NC(C)C)n2)cc1` are -9% and 1.37.
For `Cn1c(N2CCC[C@]3(C2)CC3(F)F)nc2cnccc21`, the “% Inhibition” value amounted to 0% and the Z score worked out at 0.01.
The corresponding values for `O=C(NCc1cn2c(n1)C(=O)N(Cc1ccccc1)CC2)c1cncnc1` are -10% and 1.33.
The corresponding values for `COc1cccc(-c2ccc(C)nc2N)c1C(=O)N(C(C)C)C(C)C` are -10% and 1.39.
The like results for `CC(C)Cn1c(=O)[nH]c2cc(-c3nc(-c4ccc(F)cc4)no3)ccc2c1=O` were, in that order, 2% and -0.27.
With `O=C(Nc1cccc2ncccc12)c1cccc(-n2cnnn2)c1`, the “% Inhibition” value is recorded as -6% and the Z score worked out at 0.9.
The like results for `COc1ccccc1CNC(=O)Cn1c(C)cc(C)c(-c2nc(-c3cccc(Cl)c3)no2)c1=O` were, in that order, -12% and 1.55.
